Assay results reported in PubChem BioAssay AID686971 (National Center for Advancing Translational Sciences (NCATS), 2013).
In all, about 360,000 compounds went through this assay and about 7,500 (2.1%) were called active. The shares of active, inactive and inconclusive entries below differ from those in the screen. Calls come from the whole dose curve; as a rule, active = well fitted cell-killing curve with a large enough effect; inconclusive = small, poorly fitted or top-dose-only effect, or effect the other way, or another doubt; inactive = no such curve, though single readings can be large or run the other way. Potencies of inconclusive entries are left out as doubtful fits.

Test: qHTS for induction of synthetic lethality in tumor cells producing 2HG: qHTS for the HT-1080-IDH1KD cell line;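 for activity, negative = toxicity: 0% = DMSO wells and -100% = cell-free medium wells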
Settings: HT-1080 IDH1 knockdown viability, ATP luminescence, 48 h; activity, negative = toxicity: at 46.1 µM (top of the series) unless noted
How it was run: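 CellTiter-Glo luminescence after 48 h compound exposure at 37 degrees C of IDH1-knockdown HT-1080 cells in 5% FBS RPMI. %Activity scaled between DMSO wells and cell-free media wells, with curves fitted and assigned curve classes.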
Potency is the fitted concentration of half-maximal effect; tags give direction and shape of the fitted curve.

Compound | Potency | activity, negative = toxicity
CNc1cc(CSC)nc(SCc2ccc(Cl)c(Cl)c2)n1 | inconclusive [cytotoxic, single point] | 
CCOC(=O)C1=C(CNCCc2ccc(Cl)cc2)NC(=O)NC1c1ccc2c(c1)OCO2 (stereo not given) | inconclusive [cytotoxic, partial curve] | 
CCOc1ccc(C(=O)NCC(c2cccs2)N2CCOCC2)cc1 (stereo not given) |  | inactive: 5.01%
Cc1cc(O)c(-c2cc(O)c(C)cc2O)cc1O | inconclusive [cytotoxic, single point] | 
O=C(Nc1ccc(Cl)cn1)c1cccc2c(Br)cccc12 | inconclusive [cytotoxic, single point] | 
COC(=O)c1sc(-c2cccs2)cc1NC(=O)/C=C/C(=O)O | inconclusive [cytotoxic, single point] | 
Cc1ccc(S(=O)(=O)N2CCCC2CNC(=O)C(=O)Nc2ccc(F)cc2)cc1 (stereo not given) | inconclusive [cytotoxic, single point] | 
COc1ccc(CN(C)CC2CCCN(CCc3ccc(Cl)cc3)C2)cc1OC (stereo not given) | active: 16.4 µM | 
Cc1c(Cl)cccc1N=C1SCCN1C(=O)CN1C(=O)NC2(CCCC2)C1=O | inconclusive [cytotoxic, single point] | 
OCCN1CCN(c2ncnc3c2ncn3[C@H]2CN(Cc3cccnc3)C[C@@H](CO)O2)CC1 |  | inactive: 8.26%
COC(=O)C(C)Oc1ccc(-c2nccc(-c3ccccn3)n2)cc1 (stereo not given) | inconclusive [rising, partial curve] | 
NC(=O)Cn1cc(/C=N\NS(=O)(=O)c2ccc(Cl)cc2)c2ccccc21 |  | inactive: -15.6%
Cc1nn(C)c(Nc2ccc(Br)cc2)c1Br |  | inconclusive: -38.7% [cytotoxic]
CN1C[C@H](C(=O)NC2(C)OC3(O)[C@@H]4CCCN4C(=O)[C@H](Cc4ccccc4)N3C2=O)CC2c3cccc4[nH]cc(c34)C[C@H]21 (stereo not given in full) | inconclusive [cytotoxic, single point] | 
O=C(N/N=C/c1c[nH]c2ccc(Br)cc12)c1ccncc1 | inconclusive [cytotoxic, single point] | 
CCOc1ccc(NC(=O)CCN2CCCCC2)cc1 |  | inactive: -1.24%
CC1CCN(CCCNC(=O)C2CCN(S(=O)(=O)N3CCC4(CC3)OCCO4)CC2)CC1 |  | inactive: 12.1%
Clc1ccc(-c2nnc(CSc3nnc(-c4cccs4)n3Cc3ccccc3)o2)cc1 | inconclusive [cytotoxic, single point] | 
Cc1cc(F)ccc1C(O)c1ncc(-c2cccc(OCc3ccccc3)c2)[nH]1 (stereo not given) | inconclusive [cytotoxic, single point] | 
c1coc(C2Nc3ccccc3-c3nc4ccccc4n32)c1 (stereo not given) | inconclusive [cytotoxic, single point] | 
COc1cc(/C=C/C(=O)OCC(=O)Nc2c(C)n(C)n(-c3ccccc3)c2=O)cc(OC)c1OC |  | inactive: -0.246%
Cn1c(=O)c([N+](=O)[O-])c(-n2ccnc2)c2ccccc21 | active: 25.9 µM | 
CN(CC(=O)NCc1ccc(F)cc1)S(=O)(=O)c1ccc2c(c1)c(=O)n(C)c(=O)n2C |  | inactive: -2.53%

Compound | Potency | activity, negative = toxicity
Cc1cc2oc(C(=O)Nc3c(C)n(C)n(-c4ccccc4)c3=O)c(C)c2cc1Cl | inconclusive [cytotoxic, partial curve] | 
COc1ccc2c(c1)OC[C@H]1[C@H]2N2C(=O)c3cc(OC)ccc3NC(=O)[C@@]2(C)[C@H]1c1ccccc1 | inconclusive [cytotoxic, single point] | 
O=C(/C=C/c1ccc(Br)cc1)NC(=S)N1CCOCC1 | inconclusive [cytotoxic, single point] | 
O=C(COC(=O)c1cccc(NS(=O)(=O)c2ccc(F)c(F)c2)c1)NC(=O)NC1CCCCC1 | inconclusive [cytotoxic, single point] | 
C/C=C/c1cccc(-c2nc(C(=O)N3CCOCC3)cc3c2[C@@H](CCO)N(C(=O)NC(C)C)C3)c1 |  | inactive: 5.14%
Cc1ccc(C(=O)Nc2nc(-c3ccccc3)c(-c3ccccc3)o2)cc1 | inconclusive [cytotoxic, single point] | 
COc1ccc(C[C@H]2CN3C(=NC[C@H]3Cc3ccccc3)N2CCNC(=O)c2ccc(C)c(Br)c2)cc1 | inconclusive [cytotoxic, single point] | 
Cc1cc(C(=O)COC(=O)C2=NNC(=O)CC2)c(C)n1-c1ccccc1 |  | inactive: 3.48%
COc1ccc(C(O)c2nc(-c3cccc(C(F)(F)F)c3)cs2)cc1 (stereo not given) | inconclusive [cytotoxic, single point] | 
Cc1noc(C)c1S(=O)(=O)Nc1ccc2c(c1)C(=O)N([C@H](C)CO)C[C@@H](C)[C@@H](CN(C)Cc1ccc3c(c1)OCO3)O2 |  | inactive: 4.6%
CSc1nc(N)nc2c1ncn2CC(=O)N1CCN(Cc2c(C)cc(C)cc2C)CC1 | inconclusive [cytotoxic, partial curve, poor fit] | 
COc1cccc(/C=N/NC(=O)c2cnccn2)c1O | active: 16.4 µM | 
N#C/C(=N\Nc1cccc([N+](=O)[O-])c1)C(=O)c1ccc(Br)cc1 | active: 2.59 µM | 
CC(=O)NC/C(C)=N\Nc1ccc([N+](=O)[O-])cc1 | active: 3.66 µM | 
CC1=C(c2ccc(C(C)C)cc2)S(=O)(=O)N=C1N1CCN(C(=O)c2ccco2)CC1 |  | inactive: 11.3%
CCC(C)(C)c1ccc(OCCCC[n+]2cccc(C)c2C)c(C(C)(C)CC)c1 | active: 20.6 µM | 
O=S(=O)(CC(CN1CCCC1)N1CCCC1)c1ccc2ccccc2c1 (stereo not given) | active: 23.1 µM | 
NC(=O)c1ccc(-c2nnc(Nc3ccc(S(N)(=O)=O)cc3)c3ccccc23)cc1 |  | inactive: 9.52%
CCCCCCCOC1(c2ccccc2)OC(=O)c2ccccc21 (stereo not given) | inconclusive [cytotoxic, partial curve, poor fit] | 
Cn1c(=O)c2c(-c3ccccc3)n(-c3cccc(O)c3)cc2n(C)c1=O |  | inactive: -16.5%
CCOC(=O)C(C)C(C)=O (stereo not given) | active: 58 µM | 
O=C(Nc1cc(Cl)ccc1N1CCCCC1)c1cccs1 |  | inactive: -2.75%
